Results as given in the supplement of paper PMC10681739.
The full ranking holds about 4,000 sequences; the median of “arbitrary fluorescence units” is about 830, and the highest 2% start at about 6,500. Most of the strongest results are missing from this list.

biological target: RUNX1 (UniProt Q01196); test: RUNX1 binding intensity (PBM fluorescence), RUNX1 alone (arbitrary fluorescence units); higher = stronger binding; details: RUNX1 concentration 2 nM; ETS1 concentration 0 nM
Procedure: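 gcPBM on 36-bp genomic-derived probes (partner site mutated) containing one RUNX1 site and no ETS1 site. Recombinant human RUNX1 (2 nM) was incubated alone or with ETS1 (25 nM) and detected by anti-RUNX1 antibody fluorescence. Values are medians over 4 replicate spots (not normalised). The probes sit in constant array flanks that are not printed.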
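Note: Full-length recombinant human RUNX1 bound to double-stranded DNA microarray spots, detected with an Alexa488-labelled secondary antibody after the anti-RUNX1 primary, read as scanned spot fluorescence.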

UniProt Q01196, sequence (Q01196 whole entry): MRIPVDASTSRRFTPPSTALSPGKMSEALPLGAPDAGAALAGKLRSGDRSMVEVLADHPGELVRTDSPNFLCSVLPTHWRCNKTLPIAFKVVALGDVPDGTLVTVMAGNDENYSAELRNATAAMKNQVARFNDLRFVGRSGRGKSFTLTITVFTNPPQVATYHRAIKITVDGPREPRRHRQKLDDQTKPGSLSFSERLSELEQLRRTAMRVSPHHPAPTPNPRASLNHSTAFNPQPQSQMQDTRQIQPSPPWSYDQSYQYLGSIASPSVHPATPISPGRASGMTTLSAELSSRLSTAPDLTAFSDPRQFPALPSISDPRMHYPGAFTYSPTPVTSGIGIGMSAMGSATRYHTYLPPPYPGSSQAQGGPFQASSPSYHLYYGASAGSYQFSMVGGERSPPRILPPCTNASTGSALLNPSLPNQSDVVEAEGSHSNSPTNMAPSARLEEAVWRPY

Sequence | RUNX1 binding intensity
TGGCCAGGGAGCCACTCGATTGCCGGCGCCCGCAGC | 703
CAAAACACCTGTGGTTTTGCAAAAGGAGGTGATTTC | 1870
GGTGTTACACCGCAGCCTTCCATGAAGGGGCAGGGG | 1220
CACTCCCCCATTCAGGCTGCAGGTTGAGGTTTGGAA | 821
GACCGAGAGGACGCAGCAAGGATCCTGCGGTTCCAG | 897
GTGTTCAGACGGAGGCGTTATTCAGTGGTCAGAGCA | 773
GCTCCAACCCGCGCACTTTCGGAGAACGGCAAGGGG | 885
TGGAGCCAAGCAGCCACAAACCCGGCATAGCCTGCT | 734
ACCTTCGCCGCGGTCCCCAGCCTCTTCATGTCCCGG | 1210
TGCCAGATGGAACGCCTGGCACAGCCACCGCTCGCT | 686
TTGGTGGTTAGACCTGGGGAGGGGCAGCATGTGGCA | 815
GGAAAAGGCAGTGGCTTTGACTTGCGGGCAGGGAGA | 771
TCCACGGTAACCGCGTTCGCCGTAAGGCCGCGACCC | 928
CGGCTCCTGCGGGCCCTCACACCCTGAAACACCGCT | 1810
CCTTCCTTGCTGCTGTGTACGTTGTGGTCACAGCAC | 1020
CACGGTCTTTACCGCTCAGCTTCTCGGAGTCCGCGC | 797
GGAGCGCGGTGGGGACGTTTAAAGGCAATTTACAAT | 711
AGCTTTCCATCAGGGTCCCTGTCCGTGCGGTGCAGC | 766
TCCTAGCCATCTCCTATCCACCCTGTGGCTAATTTG | 1060
AGCAACCGCCGTAACCTGTAGCAACCTGAAGATGTC | 1080
GAACTCCCGGGACCACGTGACGTAGAACCACAACAA | 897
GAGGGGAGCAAGGCCTGGCTCGGGCTGGGCCGCAGC | 654
GGTCTGCGGCGCGCGGGATGCTGGGCAATGTAGTTT | 784
CATGAATCCCCACACACAACATGAAGGGGGTGTGGC | 738
TGAATATTCTTGCGCACGTACCCACATGGCTCACTT | 761
GGCATGAAGGAATGGCGGGAACGGGGCCCGCAGGGC | 679
GGGCTGCGGCGCTGGAACTGGACCAATCCAGAATCG | 687

Sequence | RUNX1 binding intensity
GCGATTCCCCCTTGGGGTTATAGCAACCACCTCCTC | 794
GCTGGGCCATGCTGCCACATGCACCGCATCTCTGGG | 797
GCTCTGTGGCCTCCCCAGAGGTCAGATCAGGCAATG | 782
GGTGGACCTGTGGTTTGCAACACAGAAAGAGACTAT | 1640
ACCCCAAGCCCACAAACCCACCTGAAGGAACCAACT | 1200
TCTCTTTCTGTGATGGAAATACATTGAGGTTTGCGA | 840
GGCCAAGAAAACCACTCAGAGGAGATCACAGGCCTG | 687
GCATCTGCGGTTCAAGTGGCCACTGCCTGCCAGCCG | 1760
AAAACAACTCCCATCCCCTCTCTCTCCACCACAGTC | 1280
CTCGCCGCAGAGACGCAGACGCGTCCTTACGGCGGG | 795
CTACGACCTCCGTGATGCCTTGCGGTTGCTGTAGCC | 2440
TTAGCACACCCTGGGTACACAGACCACAGCCTCCTC | 1040
CGTACCAAAAACCCACATGGTCAGGCAGTGACTCAC | 1000
ATCGGCGGTCCCGCAGGTCCCGTATGTAGCGGACAG | 739
TCGTCTCTTCTGGATCCCTCCTGCACCGCCCACAGC | 1130
GAAGTGTGCTCTTACGGTACCTGCGGTTCGTTGCGC | 783
CCTGACCTCCTCCTCCCCCTCCCGCCACAATTCCGC | 1540
TGGAGCTGTTGCGGGGTCCGCGGGGAACTCTTGGCA | 697
GGCTTGCCAAGAGGCAATTTGAAGCCACAATAACAT | 779
CAGCCTTGCCGTAAGGCAGAGTTTGTGGTCAGACCG | 1110
GAAGAGCAAAACCAAGTGAAGGAGACTTCACTAAGT | 730
TAGGACAGCGGTTTTTCAGTCCGGAGATTCCAGCCA | 787
CTACCGGGAATGCAGCACCACGTAAAATGCGGTCGG | 808
CTCGTGGCCACATCTGGCGGTGCCCCGGCATCAGGT | 756
TCCGGCCCCGCAGCGCTGTGAACTCCATCTCCCAGA | 878
TCCCCCTTCCCACAGCTCCTCCTCCGCGTCCTCCCC | 1270
TGGTGCACCACACACACGAGATAAAACAGAAAGCCT | 872

Sequence | RUNX1 binding intensity
CCAGGCCTTCAGGACCACAGCGTCCGACATGCCCCG | 737
GGCTGCAGCAAGTGGGAAGGTGTGGCTTTGAGTCTC | 708
GTCGGTTTTTCTGTGGCTAGCGGATTTTTGGCACCA | 1200
GGTGCCGCAGCTCCAGCCTCTCGGCAAGGGAGCGCT | 717
CTTAGCGCAAGAGGCGTGACCCAGGCGTACCGCAGG | 693
TGTTGTGGTTCCCGAGCTTCGTCCACGCCGGGTCTG | 1140
GTCGCCGGGATCACCGCAAACGCTTGCTGCTTGCGC | 1190
GCGGGCTATACGGTCCTCGGCTGCGGCGGGCACCAT | 770
CAGTCTCCTTGCGCGTCACCTCTGTGACCGCTGTGC | 1350
GCCGGGCACTGCCTGTGGAGGCCGCAGCGGGTGCGC | 744
CGGCCTCTTCAGGTCACCTGGCCCGTCGCGGTCCCG | 946
GCTGCCTCTGCCGCAAAGATGCCCCCTTCAGCTGGA | 759
TGACTCACCTGCCTGTAGGTTGGTTTTCTGCATATC | 663
CAGCTGAAGAAAGACCTGCCACCTCCACCACAAAGA | 1020
ATTTTGAGGTTTAACTAGATATTATCTATTTACGGA | 1010
GGTCTGAGCGGTGGAGGGAAGCAGACAGGCAGTGGG | 724
TCGCTAGCCACAGCCATTTTTGTACCCGGGGAGCCC | 944
AATACCCTGTGGTGGCCGCCGAAAGTGTGTCGGCGG | 756
AAGAGGCAATAAATACCAGAGTGAACCCACAAACCT | 960
TCCTATATACTGCCGTTTGCCTCGCGGTTTCTTTCT | 1720
TCCCCCACCGCACAGGCAAACCAGTTCCTCTTCTGC | 1900
CCTCTCTGTGGTTCTGCCTGGAATACGCAAGGCAGG | 1050
TGCGCTCGATTGTGGGCGGGGGCGCAAAGAGGCGCC | 730
GCTCTGTGGTTAGCAGGTGCAACCCACGCGGAGGGG | 1960
TAGATCTTCATGGACGTGCCTCTCCCCTGCGGCCTG | 748
CTCCCCCGCACATAGCCCTGAACTGAGGCAGTCATC | 947
